# Measured values from the supplement of paper PMC10338343.
# ± gives the standard deviation. This is a selection; strong and weak results do not stand in their true shares.
# System: MIWI (PIWIL1) piRISC loaded with L1MC piRNA (30 nt)
# Assay: pre-steady-state target cleavage rate (min^-1); MIWI and MILI are mouse PIWI proteins and EfPiwi is from a freshwater sponge; tags in brackets are library labels; higher = faster piRNA-guided slicing of the target
# Conditions: guide: L1MC piRNA 5'p-UAACUAAAUACUAUGCAAGCUGUAGGUCCU; auxiliary factor: 500 nM mouse GTSF1
# Experimental: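 Cleave-'n-Seq: a library of target RNAs (target site embedded in constant flanks, ACAGCATTCCGCGTTAGTGATATCCG... 5' flank; DNA-blocked outside the site) at 0.1 nM was incubated with 1 nM active mouse MILI or MIWI piRISC (synthetic 5'-monophosphorylated piRNA guide) with or without 500 nM mouse GTSF1 at 33 °C for 1 min to 16 h. Uncleaved targets were sequenced and normalised to non-target controls, and the pooled three trials were fitted to a burst-and-steady-state model to give the pre-steady-state cleavage rate (min^-1; k3 is constrained to at most 1e-4). Sequence is the target site only; target names encode pairing extent (gX:gY) and contiguous / 1-mismatch / 2-mismatch / bulge geometry. Fits with R² ≤ 0 are excluded.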
row,Sequence,pre-steady-state target cleavage rate
1,UCCACCUACAGCAUGCAAAGUAUUUAGUUA,0.967 ± 0.039
2,AGCACCUACAGCUUGCAUAGUUUUUAGUUA,0.591 ± 0.09
3,AGGACCUACAGCUUGCUUAGUAUUUAGUUA,1.43 ± 0.071
4,UGGACCUACUCCUUGCAUAGUAUUUAGAAA,0.189 ± 0.032
5,UCCUGGAUCAGCUAGCAUAGAAUUUAGUUA,0.138 ± 0.013
6,AGGAGCUACAGCUUGCUUAGUAUUUAGUUA,1.3 ± 0.061
7,UGGACCUACAGCUUGCAUAGUAUUAUAGUUA,1.24 ± 0.062
8,UCCACCUUCUGCUUGCAUAGUAUUUAGUUA,0.761 ± 0.028
9,UCCUGGAUGUCGAUGCUUAGUAUUUUGUUA,< 0.0001
10,UCCUGGAUGAGCUUGCAUAGUAGUUAGUUA,0.269 ± 0.022
11,UCCUGGAACAGCUUGCAUAGUAUAAAGUUA,0.359 ± 0.039
12,UCGACCUACAGCAUGCAUAGUUUUUAGUUA,0.465 ± 0.025
13,UCCUGGUACAGCUUGCAUAGUAUUUUGUUA,0.448 ± 0.059
14,AGGACCUACAGGUUGCAUAGUAUAUAGUUA,0.811 ± 0.078
15,UCCUGCUACUCCUUGCAUAGUAUUUAGUAA,0.305 ± 0.026
16,UGGACCCACAGCUUGCAUAGUAUUUAGUUA,1.43 ± 0.091
17,UCCAGCUACUGCUUGCAUAGUAUUUAGUUA,0.36 ± 0.035
18,UCCUGCUACAGCUUGCAUAGUAUCUAGUUA,0.53 ± 0.04
19,UCCUGCUACAGCUUGCAUAGUAUUUAGUGA,0.388 ± 0.045
20,UCCUGCUACAGCUUGCAUAGUAUUAUCUAA,0.194 ± 0.036
21,UCGACCUACAGCUAGCAUAGAAUUUAGUUA,0.381 ± 0.029

# Same assay, conditions: guide: L1MC piRNA 5'p-UAACUAAAUACUAUGCAAGCUGUAGGUCCU; auxiliary factor: none (no GTSF1)
row,Sequence,pre-steady-state target cleavage rate
1,UCCACCUACAGCAUGCAAAGUAUUUAGUUA,0.0109 ± 0.0022
2,AGCACCUACAGCUUGCAUAGUUUUUAGUUA,0.171 ± 0.054
3,AGGACCUACAGCUUGCUUAGUAUUUAGUUA,0.066 ± 0.015
4,UGGACCUACUCCUUGCAUAGUAUUUAGAAA,0.00602 ± 0.002
5,UCCUGGAUCAGCUAGCAUAGAAUUUAGUUA,0.00723 ± 0.0031
6,AGGAGCUACAGCUUGCUUAGUAUUUAGUUA,0.0523 ± 0.011
7,UGGACCUACAGCUUGCAUAGUAUUAUAGUUA,0.052 ± 0.011
8,UCCACCUUCUGCUUGCAUAGUAUUUAGUUA,0.0489 ± 0.0085
9,UCCUGGAUGAGCUUGCAUAGUAGUUAGUUA,0.0182 ± 0.005
10,UCCUGGAACAGCUUGCAUAGUAUAAAGUUA,0.0115 ± 0.0046
11,UCGACCUACAGCAUGCAUAGUUUUUAGUUA,0.0154 ± 0.0029
12,UCCUGGUACAGCUUGCAUAGUAUUUUGUUA,0.0356 ± 0.0063
13,AGGACCUACAGGUUGCAUAGUAUAUAGUUA,0.0317 ± 0.0061
14,UCCUGCUACUCCUUGCAUAGUAUUUAGUAA,0.0074 ± 0.002
15,UGGACCCACAGCUUGCAUAGUAUUUAGUUA,0.0699 ± 0.011
16,UCCAGCUACUGCUUGCAUAGUAUUUAGUUA,0.0249 ± 0.0028
17,UCCUGCUACAGCUUGCAUAGUAUCUAGUUA,0.0388 ± 0.0058
18,UCCUGCUACAGCUUGCAUAGUAUUUAGUGA,0.0222 ± 0.0053
19,UCGACCUACAGCUAGCAUAGAAUUUAGUUA,0.00737 ± 0.0036
